For five compounds, GI50 and TGI results are on record in PubChem BioAssay (NCI).

Test systems include A498 renal; COLO 205 colon; HT29 colon; KM20L2 colon; SK-OV-3 ovarian; RPMI-8226 leukemia; DMS 114 small cell lung; HCC-2998 colon; HCT-15 colon; LOX IMVI melanoma; M19-MEL melanoma; MOLT-4 leukemia; NCI-H23 lung; NCI-H522 lung; NCI/ADR-RES ovarian; OVCAR-4 ovarian; SF-268 CNS; SK-MEL-2 melanoma; SK-MEL-5 melanoma; SNB-78 CNS; SF-295 CNS.
Common to all, as to experiment: NCI-60 cell line screen, 48 h

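In this assay, cells in 96-well plates receive the compound at five concentrations for 48 hours. Endpoints are linearly interpolated between the surrounding concentrations. GI50: concentration for 50% inhibition of growth.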 For part of its entries the source gives two or more results. They are shown here; other results are not. An entry can have further records. For some of these results: Values that stand side by side repeat one measurement (runs, samples, wells, individuals or studies). Marks in square brackets tell the records apart. The letters are not those of the source and start again with each entry.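 TGI denotes the concentration required for complete inhibition of growth.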 For some of these results: A record mostly stands for its own series of concentrations, which the source does not state; a value can be the end of its range. Bounds are passed on as bounds.

For the compound `CN1CCC(C(=O)Nc2n[nH]c3nc(-c4ccc(O)cc4)c(Br)cc23)CC1`, in the assay on A498 renal, the GI50 was 615 nM [sample A, mean of 2 tests] and 37.1 nM [sample B, mean of 2 tests]; the TGI was 3.77 µM [sample A, mean of 2 tests] and 323 nM [sample B, mean of 2 tests].

In the case of `CC(=O)OC(C)(C)/C=C/C(=O)[C@](C)(O)[C@H]1[C@H](O)C[C@@]2(C)[C@@H]3CC=C4[C@@H](C[C@H](O)C(=O)C4(C)C)[C@]3(CO)C(=O)C[C@]12C`, the TGI with COLO 205 colon is 778 nM and 21.7 µM; in the assay with HT29 colon, 980 nM and 49.7 µM; in the assay with KM20L2 colon it was 835 nM and 18.8 µM; with SK-OV-3 ovarian it was 970 nM and 11.5 µM.

With `C=C1C(=O)O[C@@H]2OC3(C)CCC4C(C)CCC1C42OO3` (some centres not stated), the TGI in the assay on RPMI-8226 leukemia is 3.22 µM and > 100 µM.

On to `NC(=S)N/N=C/c1ccc(O)cn1`, for which the TGI in the assay on DMS 114 small cell lung was 22.6 µM, 66.3 µM [1 test] and 327 µM [mean of 3 tests]; with HCC-2998 colon it was 51.1 µM and 1.16 mM; with HCT-15 colon it was 57.6 µM and > 1.5 mM; in the assay with LOX IMVI melanoma it was 82.9 µM, > 1.5 mM, 292 µM; with M19-MEL melanoma, 49.1 µM and > 1.5 mM; with MOLT-4 leukemia it was 62.3 µM, 915 µM [1 test] and 30.8 µM [mean of 4 tests]. The TGI with NCI-H23 lung is 13.1 µM and > 705 µM; with NCI-H522 lung, 48.5 µM, 40.7 µM [1 test] and 1.24 mM [mean of 8 tests]; in the assay on NCI/ADR-RES ovarian it was 9.64 µM and 127 µM; in the assay with OVCAR-4 ovarian, 8.51 µM [1 test] and > 1.5 mM [mean of 7 tests]; with SF-268 CNS it was 45 µM, 14.8 µM, 731 µM; in the assay on SK-MEL-2 melanoma, 142 µM [1 test] and > 1.45 mM [mean of 7 tests]. The TGI in the assay on SK-MEL-5 melanoma was 36 µM, > 1.5 mM, 270 µM; in the assay with SNB-78 CNS, 22.8 µM [1 test] and > 1.5 mM [mean of 5 tests].

Take `c1ccc(Nn2c(CCCCCCCCc3nnc(COc4ccccc4)n3Nc3ccccc3)nnc2COc2ccccc2)cc1`: the TGI in the assay on SF-295 CNS is > 300 µM [1 test] and 19 µM [mean of 4 tests].
